The record followed here is article PMC6212790.

This is one part of the list. At the low end of the ranking the order means little.

The target in this experiment is T1, GST-Rok-C97-191 (UniProt O34857).
T1 sequence: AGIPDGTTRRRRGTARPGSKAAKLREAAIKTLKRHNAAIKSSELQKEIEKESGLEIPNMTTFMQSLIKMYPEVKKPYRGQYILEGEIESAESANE
As to the kind of experiment: protein binding microarray.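 Also: rank score from −0.5 (least bound) to 0.5 (best bound).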 The settings on record: Rok is a gene silencer of Bacillus subtilis; high values mean tight binding; most listed sequences are background and not binding sites; double strand, one strand shown.
Sequence ACGCTTGG displayed a binding signal of -0.235 E-score.

As for CCATTCCA, the binding signal was -0.151 E-score.

AGACGGTC: the binding signal was -0.222 E-score.

Take CAAATACA: the binding signal turned out to be 0.187 E-score.

Regarding CCTCATAC, the binding signal was determined as 0.0322 E-score.

ATGACCTA showed a binding signal of -0.0267 E-score.

Sequence ATCTTTTA showed a binding signal of 0.239 E-score.

CAGCTGCG displayed a binding signal of -0.282 E-score.

Consider GGTCGGAA, for which the binding signal was found to be 0.0129 E-score.

Sequence GCCTGGAC gave a binding signal of -0.192 E-score.

AAAGGGTC returned a binding signal of -0.19 E-score.

With CAATGGCG, the binding signal was -0.0875 E-score.

For AGACAGCT, the binding signal was -0.196 E-score.

For the sequence AAGAAACT, the binding signal was determined as 0.217 E-score.

The sequence CCTGTCAA displayed a binding signal of -0.118 E-score.

For the sequence CGGTCCAG, the binding signal was -0.196 E-score.

CTACCCAA gave a binding signal of -0.00276 E-score.

As for TACATCAA, the binding signal amounted to 0.188 E-score.

AAGGATGT: the binding signal is -0.0483 E-score.

Sequence GTCGGGTA gave a binding signal of 0.0532 E-score.

Sequence CTATGGTA returned a binding signal of 0.211 E-score.

ATTCACTC showed a binding signal of -0.124 E-score.

Sequence GATTTGGC returned a binding signal of -0.0055 E-score.

In turn, AGGGGGTG registered a binding signal of -0.382 E-score.

For the sequence GATACTAC, the binding signal came to 0.313 E-score.

AGTCTTGG gave a binding signal of -0.108 E-score.

Turning to AGAATCAT, the binding signal turned out to be 0.241 E-score.

Consider ATTCGCGC, for which the binding signal was -0.0661 E-score.

AGTCATGC returned a binding signal of -0.00825 E-score.

Sequence CTTGGTAC gave a binding signal of 0.0462 E-score.

For TTAAAAAA, the binding signal was -0.0566 E-score.

AATATCCA showed a binding signal of 0.12 E-score.

ATAAACAA registered a binding signal of 0.0695 E-score.

In the case of CCTGACCC, the binding signal is -0.269 E-score.

As to ACAGAGGT, the binding signal is -0.094 E-score.

As to CCGTCCCA, the binding signal was 0.0347 E-score.

On to GAGGCATA, for which the binding signal is -0.0575 E-score.

Turning to ATTAAGTC, the binding signal is -0.018 E-score.

AGGAAGAC gave a binding signal of -0.0651 E-score.

The sequence GCGGTTCC gave a binding signal of -0.143 E-score.

GGGCGTCA: the binding signal is -0.293 E-score.

In turn, GCTATTGA came in with a binding signal of 0.0757 E-score.

ATGTGAAT: the binding signal was determined as 0.0623 E-score.

As for ACCACCAT, the binding signal is -0.0276 E-score.

With ACAGCGTG, the binding signal is -0.123 E-score.

Regarding GAAGCCTC, the binding signal was -0.166 E-score.

Take ATTGATAC: the binding signal came to 0.22 E-score.

Take ATAGGCCC: the binding signal is -0.222 E-score.

As for AAGCCTAA, the binding signal was -0.0889 E-score.

In turn, ACTTGCCG had a binding signal of -0.0251 E-score.

Consider ATCCCAGC, for which the binding signal was -0.154 E-score.

Sequence GCCGGCCC came in with a binding signal of -0.255 E-score.

With ATGTGAAC, the binding signal stood at 0.0898 E-score.

For the sequence ACTCGGTA, the binding signal came to 0.286 E-score.

In the case of AAGAAGCA, the binding signal was -0.117 E-score.

With CCCCCCCC, the binding signal was -0.28 E-score.

ATACGAAC showed a binding signal of 0.134 E-score.

For the sequence GACGCGTC, the binding signal is -0.099 E-score.

AACCAACA registered a binding signal of 0.202 E-score.

The sequence AAACAGTC displayed a binding signal of -0.0408 E-score.

CGTTTTAA displayed a binding signal of 0.186 E-score.

Sequence ATCAACAA displayed a binding signal of -0.00505 E-score.

With ACCACGCG, the binding signal is -0.228 E-score.

Sequence GTGATTTA had a binding signal of 0.0263 E-score.

CTAGGCCC: the binding signal was -0.276 E-score.

In the case of GACTCCGC, the binding signal is -0.151 E-score.

CTTTTAAA had a binding signal of 0.0378 E-score.

On to GGTCAACC, for which the binding signal was -0.0613 E-score.

In turn, TGGTTACA registered a binding signal of 0.0946 E-score.

ACGCAGTC showed a binding signal of -0.208 E-score.

For ATGCTAGC, the binding signal was determined as 0.102 E-score.

GTCGCACA had a binding signal of -0.0384 E-score.

Take CCACGAAC: the binding signal was -0.316 E-score.

As for CGACCTAA, the binding signal was -0.105 E-score.

For the sequence CGTTCCAG, the binding signal turned out to be 0.0308 E-score.

CCGGCAGA returned a binding signal of -0.102 E-score.

CCGATTGA showed a binding signal of -0.00347 E-score.

GGGACAAC returned a binding signal of -0.161 E-score.

GGGCACGA showed a binding signal of -0.233 E-score.

On to CAAGTCGC, for which the binding signal was -0.162 E-score.

Turning to CCGGAGAC, the binding signal is -0.0555 E-score.

On to GGTTGAGA, for which the binding signal is 0.00996 E-score.

For AACTTGGT, the binding signal is -0.119 E-score.

In turn, AAGCCCTT gave a binding signal of -0.092 E-score.

In turn, CCCTAAAG gave a binding signal of -0.181 E-score.

ATTCCACA displayed a binding signal of 0.138 E-score.

The sequence ATGGATAA had a binding signal of 0.274 E-score.

GTAAGCGA yielded a binding signal of -0.0245 E-score.

In turn, AGTTCAAA gave a binding signal of 0.0142 E-score.

CGTCCAAG yielded a binding signal of -0.0772 E-score.

Turning to TAAAGCAA, the binding signal is -0.0284 E-score.

Turning to CCGGGAAA, the binding signal is -0.0708 E-score.

For the sequence CTATGCCA, the binding signal is -0.00435 E-score.

CACGCTAG displayed a binding signal of 0.102 E-score.

Sequence CGACGGAC gave a binding signal of -0.255 E-score.

AGGCTTTC came in with a binding signal of -0.0156 E-score.

Regarding GTAATTAA, the binding signal was 0.213 E-score.

Consider CTAGTAGC, for which the binding signal is 0.251 E-score.

The sequence ATAACTAC displayed a binding signal of 0.323 E-score.

Take CCCCACAA: the binding signal is -0.324 E-score.

With GCTCCTAA, the binding signal is -0.264 E-score.

Turning to GTGTCATA, the binding signal was -0.0304 E-score.

GATACGCC: the binding signal came out at 0.0171 E-score.

TGAGTTAA: the binding signal worked out at 0.247 E-score.

CCCACGGG showed a binding signal of -0.352 E-score.

CAAAGGCA had a binding signal of -0.18 E-score.

ACGTGGGG displayed a binding signal of -0.173 E-score.

Regarding AGTGCGTG, the binding signal worked out at 0.0624 E-score.

On to AATAGTAG, for which the binding signal came out at 0.475 E-score.

On to ACCAGACT, for which the binding signal was -0.239 E-score.

The sequence CACCATGG returned a binding signal of -0.115 E-score.

Regarding GAAACAGC, the binding signal is -0.0502 E-score.

Regarding CTTAAGTA, the binding signal turned out to be 0.197 E-score.

Sequence ACCCATCA returned a binding signal of -0.182 E-score.

CACGTCTG: the binding signal is -0.111 E-score.

In turn, GGTTTTGA had a binding signal of 0.0578 E-score.

As to ATCGATGA, the binding signal is 0.215 E-score.

In the case of CCAGCCCG, the binding signal was -0.295 E-score.

In turn, CGGCACTA registered a binding signal of 0.0999 E-score.

The sequence CCTGTTCA showed a binding signal of -0.198 E-score.

Consider GTTGTGAA, for which the binding signal was 0.0836 E-score.

In the case of TCTGATCA, the binding signal stood at 0.102 E-score.

Sequence AGGTGTGG gave a binding signal of -0.0866 E-score.

GTGCCAAA came in with a binding signal of -0.0299 E-score.

The sequence GACCGCAC registered a binding signal of -0.11 E-score.

Sequence GTAGGTTA returned a binding signal of 0.251 E-score.

Take CATTCTGA: the binding signal was -0.0618 E-score.

In turn, GGGTCTAC yielded a binding signal of -0.137 E-score.

As to CGCTTAAC, the binding signal was determined as 0.0587 E-score.

As for ATTCTCAG, the binding signal was -0.0354 E-score.

Consider ACCTTAAA, for which the binding signal came out at 0.023 E-score.

Take ACGTTTGC: the binding signal is -0.0306 E-score.

Turning to ACGTAACT, the binding signal is 0.168 E-score.

Consider CCGAGTAC, for which the binding signal was -0.0881 E-score.

With GTCCCATA, the binding signal was -0.123 E-score.

CAGGTCAC gave a binding signal of -0.123 E-score.

GATACGAC came in with a binding signal of 0.0623 E-score.

AAAACGAA had a binding signal of -0.0738 E-score.

Regarding ATAAGTAG, the binding signal stood at 0.307 E-score.

In the case of GCGACCCA, the binding signal turned out to be 0.134 E-score.

For the sequence CATCGTGC, the binding signal was -0.0416 E-score.

AACTAAGA returned a binding signal of 0.223 E-score.

Consider CATCGTCA, for which the binding signal was -0.0281 E-score.

GCACGGGC came in with a binding signal of -0.193 E-score.

GCCGATGA registered a binding signal of -0.145 E-score.

Sequence ATATAGAA gave a binding signal of 0.347 E-score.

In the case of AGTGGCCG, the binding signal was -0.0389 E-score.

The sequence GAACACTA showed a binding signal of -0.146 E-score.

For CGCTTGGA, the binding signal is -0.24 E-score.

The sequence AATAATCT showed a binding signal of 0.0918 E-score.

Sequence CTTTGTGC gave a binding signal of -0.229 E-score.

The sequence CAAGCGTC showed a binding signal of -0.148 E-score.

As to CGCTGCAG, the binding signal was -0.286 E-score.

In turn, CTCCTGTC registered a binding signal of -0.234 E-score.

Turning to TACTGAGA, the binding signal came to 0.0745 E-score.

For the sequence CCTGAAAC, the binding signal was -0.0142 E-score.

ACGGTATA: the binding signal came out at 0.215 E-score.

AAGCGGAC: the binding signal is -0.0303 E-score.

As for AGTCACGA, the binding signal is -0.102 E-score.

CGTCCTAG: the binding signal is -0.269 E-score.

On to ATTCGCCG, for which the binding signal is -0.0321 E-score.

CTGCCCAA displayed a binding signal of -0.00161 E-score.

Sequence GTCCGCTA showed a binding signal of -0.0907 E-score.

On to CCGGCCAA, for which the binding signal is -0.177 E-score.

As for TACGCCAA, the binding signal was -0.125 E-score.

On to ATAACTAG, for which the binding signal turned out to be 0.232 E-score.

Consider CTCACTCA, for which the binding signal is -0.0724 E-score.

Sequence CGCTCTGC gave a binding signal of -0.0463 E-score.

For TCACAAAA, the binding signal worked out at 0.0113 E-score.

GCCGTTCA: the binding signal is -0.0643 E-score.

GCCGTTAC displayed a binding signal of -0.0424 E-score.

In the case of ACAGGGTA, the binding signal is 0.0816 E-score.
